Assay results: article PMC8435288
No constants are given. Whether binding was seen depends on the method and setting. In cells and extracts the contact can be indirect. Some entries that bind do so weakly or less than the wild type. For part of these data: Tags and fused reporters may be left off the sequences shown.

Amino acid sequences for entries named in this document (tags omitted).
UniProt P61086: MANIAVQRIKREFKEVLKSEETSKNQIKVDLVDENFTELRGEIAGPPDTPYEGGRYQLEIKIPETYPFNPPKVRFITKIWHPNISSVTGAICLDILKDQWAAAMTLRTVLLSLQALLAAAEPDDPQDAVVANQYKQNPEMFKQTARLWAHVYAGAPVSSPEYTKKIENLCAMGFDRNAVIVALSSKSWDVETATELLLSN

T1: ERLIN1–FLAG (UniProt O75477)
T1 sequence: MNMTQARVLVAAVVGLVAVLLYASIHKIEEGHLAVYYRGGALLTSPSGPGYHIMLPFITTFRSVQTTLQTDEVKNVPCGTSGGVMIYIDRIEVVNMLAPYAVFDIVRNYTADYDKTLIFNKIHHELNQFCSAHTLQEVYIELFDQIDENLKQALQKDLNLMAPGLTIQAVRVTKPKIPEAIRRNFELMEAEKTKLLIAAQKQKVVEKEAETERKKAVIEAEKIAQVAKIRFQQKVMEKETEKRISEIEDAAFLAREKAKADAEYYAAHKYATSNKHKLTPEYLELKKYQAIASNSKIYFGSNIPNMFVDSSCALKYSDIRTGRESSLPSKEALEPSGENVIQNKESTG

T2: UBXN4–FLAG (human (from the printed UniProt entry)) (UniProt Q92575)
T2 sequence: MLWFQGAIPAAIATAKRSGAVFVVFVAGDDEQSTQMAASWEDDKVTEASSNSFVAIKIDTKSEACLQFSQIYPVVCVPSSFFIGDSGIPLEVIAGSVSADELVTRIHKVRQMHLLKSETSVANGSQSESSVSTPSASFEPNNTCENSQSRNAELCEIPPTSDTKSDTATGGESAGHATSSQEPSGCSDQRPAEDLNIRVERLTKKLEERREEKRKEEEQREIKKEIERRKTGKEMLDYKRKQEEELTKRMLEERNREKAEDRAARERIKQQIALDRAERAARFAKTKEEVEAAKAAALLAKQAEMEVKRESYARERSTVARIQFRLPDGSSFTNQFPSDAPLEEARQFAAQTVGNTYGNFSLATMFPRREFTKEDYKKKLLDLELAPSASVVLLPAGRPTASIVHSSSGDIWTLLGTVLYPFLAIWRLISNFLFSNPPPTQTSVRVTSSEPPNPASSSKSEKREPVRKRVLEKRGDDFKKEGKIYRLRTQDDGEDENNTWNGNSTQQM

T3: ERLIN2–FLAG (human (from the printed UniProt entry)) (UniProt O94905)
T3 sequence: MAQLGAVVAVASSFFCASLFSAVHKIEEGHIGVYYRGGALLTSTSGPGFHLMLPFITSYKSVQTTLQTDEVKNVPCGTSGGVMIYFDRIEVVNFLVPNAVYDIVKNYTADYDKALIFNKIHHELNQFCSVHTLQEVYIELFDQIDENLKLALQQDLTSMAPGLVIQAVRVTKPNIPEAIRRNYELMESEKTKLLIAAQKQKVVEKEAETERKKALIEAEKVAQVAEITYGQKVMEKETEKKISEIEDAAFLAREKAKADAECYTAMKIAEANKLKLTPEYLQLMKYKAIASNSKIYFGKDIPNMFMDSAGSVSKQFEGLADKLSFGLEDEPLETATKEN

T4: FAF2–FLAG (human (from the printed UniProt entry)) (UniProt Q96CS3)
T4 sequence: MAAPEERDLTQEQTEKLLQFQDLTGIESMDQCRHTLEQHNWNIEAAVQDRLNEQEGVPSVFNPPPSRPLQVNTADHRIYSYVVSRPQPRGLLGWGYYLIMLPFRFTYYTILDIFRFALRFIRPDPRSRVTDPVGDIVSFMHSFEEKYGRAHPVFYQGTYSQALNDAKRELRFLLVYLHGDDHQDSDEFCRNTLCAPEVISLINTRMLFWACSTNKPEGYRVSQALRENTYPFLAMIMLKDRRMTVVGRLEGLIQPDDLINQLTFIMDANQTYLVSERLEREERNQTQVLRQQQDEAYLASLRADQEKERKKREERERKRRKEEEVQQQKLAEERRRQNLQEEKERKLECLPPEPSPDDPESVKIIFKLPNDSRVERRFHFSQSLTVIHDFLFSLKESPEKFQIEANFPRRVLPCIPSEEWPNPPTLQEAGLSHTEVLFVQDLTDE

T5: FAF2 (endogenous) (human (endogenous in HEK293T)) (UniProt Q96CS3)
T5 sequence: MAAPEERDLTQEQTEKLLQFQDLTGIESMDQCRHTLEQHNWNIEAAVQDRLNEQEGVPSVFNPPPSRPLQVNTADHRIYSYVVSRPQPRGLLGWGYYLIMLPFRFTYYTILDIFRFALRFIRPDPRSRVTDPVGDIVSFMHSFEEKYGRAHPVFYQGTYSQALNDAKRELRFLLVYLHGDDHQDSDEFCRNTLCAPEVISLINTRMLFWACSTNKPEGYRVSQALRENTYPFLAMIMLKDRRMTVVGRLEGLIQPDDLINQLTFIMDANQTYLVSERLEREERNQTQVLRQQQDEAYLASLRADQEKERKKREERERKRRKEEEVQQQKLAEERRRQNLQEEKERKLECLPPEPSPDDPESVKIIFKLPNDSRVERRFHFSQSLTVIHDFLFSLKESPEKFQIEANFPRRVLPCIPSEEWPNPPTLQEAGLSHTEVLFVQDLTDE

T6: ERLIN2 (endogenous) (human (endogenous in HEK293T)) (UniProt O94905)
T6 sequence: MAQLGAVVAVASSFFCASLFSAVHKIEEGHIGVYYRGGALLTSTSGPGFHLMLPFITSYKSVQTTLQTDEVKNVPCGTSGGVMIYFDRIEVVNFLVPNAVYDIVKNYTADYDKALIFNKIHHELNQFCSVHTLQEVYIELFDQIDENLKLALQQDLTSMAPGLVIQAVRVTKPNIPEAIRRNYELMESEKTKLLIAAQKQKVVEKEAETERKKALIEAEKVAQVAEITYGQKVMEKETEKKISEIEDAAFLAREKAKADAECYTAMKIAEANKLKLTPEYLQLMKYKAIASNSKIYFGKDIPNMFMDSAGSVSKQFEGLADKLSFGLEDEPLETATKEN

T7: PORCN–FLAG (UniProt Q9H237)
T7 sequence: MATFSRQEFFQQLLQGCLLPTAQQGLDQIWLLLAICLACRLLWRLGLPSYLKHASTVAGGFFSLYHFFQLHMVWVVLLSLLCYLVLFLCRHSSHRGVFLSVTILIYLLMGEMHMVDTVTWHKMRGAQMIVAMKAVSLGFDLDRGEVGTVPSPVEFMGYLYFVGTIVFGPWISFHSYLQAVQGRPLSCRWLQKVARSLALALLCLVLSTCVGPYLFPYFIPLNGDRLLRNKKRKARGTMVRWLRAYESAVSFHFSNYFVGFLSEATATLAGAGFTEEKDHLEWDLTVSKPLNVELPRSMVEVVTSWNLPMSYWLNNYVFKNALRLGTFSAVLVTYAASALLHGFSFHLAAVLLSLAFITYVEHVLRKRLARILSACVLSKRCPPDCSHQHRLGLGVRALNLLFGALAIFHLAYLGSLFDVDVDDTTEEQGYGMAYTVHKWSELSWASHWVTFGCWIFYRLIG


Columns and labels:
ERLIN1–FLAG = target: T1, ERLIN1–FLAG; assay: co-IP; FLAG-tagged proteins overexpressed 48 h in wild-type and EVI/WLS KO HEK293T cells; lysis in 20 mM Tris-HCl pH 7.4, 130 mM NaCl, 2 mM EDTA, 10% glycerol, 1% Triton X-100; anti-FLAG M2 Affinity Gel or control agarose beads overnight at 4°C; eluted with 3× FLAG peptide; western blot of endogenous partners
UBXN4–FLAG (human) = target: T2, UBXN4–FLAG (human); assay: as above
ERLIN2–FLAG (human) = target: T3, ERLIN2–FLAG (human); assay: as above
FAF2–FLAG (human) = target: T4, FAF2–FLAG (human); assay: as above
FLAG–UBE2K (human) = target: FLAG–UBE2K (human (from the printed UniProt entry)) (UniProt P61086); assay: as above
[1] = target: T5, FAF2 (endogenous) (human (endogenous in HEK293T)); assay: co-IP; endogenous IP without overexpression; wild-type and EVI/WLS KO HEK293T cells; lysis in 50 mM Tris-HCl pH 7.5, 150 mM NaCl, 1 mM EDTA, 10% glycerol, 0.25% sodium deoxycholate, 1% NP-40 alternative; 1 mg protein with 1 µl antibody and Dynabeads Protein G overnight at 4°C; western blot
[2] = target: T6, ERLIN2 (endogenous) (human (endogenous in HEK293T)); assay: as above
PORCN–FLAG = target: T7, PORCN–FLAG; assay: co-IP; FLAG-tagged proteins overexpressed 48 h in wild-type and EVI/WLS KO HEK293T cells; lysis in 20 mM Tris-HCl pH 7.4, 130 mM NaCl, 2 mM EDTA, 10% glycerol, 1% Triton X-100; anti-FLAG M2 Affinity Gel or control agarose beads overnight at 4°C; eluted with 3× FLAG peptide; western blot of endogenous partners

Molecule	binding (ERLIN1–FLAG)	binding (UBXN4–FLAG (human))	binding (ERLIN2–FLAG (human))	binding (FAF2–FLAG (human))	binding (FLAG–UBE2K (human))	binding [1]	binding [2]	binding (PORCN–FLAG)
VCP (endogenous) (from UniProt P55072 1-806)	no binding	–	–	–	–	–	–	–
EVI/WLS (endogenous) (protein, UniProt Q5T9L3 1-541) MAGAIIENMSTKKLCIVGGILLVFQIIAFLVGGLIAPGPTTAVSYMSVKCVDARKNHHKTKWFVPWGPNHCDKIRDIEEAIPREIEANDIVFSVHIPLPHMEMSPWFQFMLFILQLDIAFKLNNQIRENAEVSMDVSLAYRDDAFAEWTEMAHERVPRKLKCTFTSPKTPEHEGRYYECDVLPFMEIGSVAHKFYLLNIRLPVNEKKKINVGIGEIKDIRLVGIHQNGGFTKVWFAMKTFLTPSIFIIMVWYWRRITMMSRPPVLLEKVIFALGISMTFINIPVEWFSIGFDWTWMLLFGDIRQGIFYAMLLSFWIIFCGEHMMDQHERNHIAGYWKQVGPIAVGSFCLFIFDMCERGVQLTNPFYSIWTTDIGTELAMAFIIVAGICLCLYFLFLCFMVFQVFRNISGKQSSLPAMSKVRRLHYEGLIFRFKFLMLITLACAAMTVIFFIVSQVTEGHWKWGGVTVQVNSAFFTGIYGMWNLYVFALMFLYAPSHKNYGEDQSNGDLGVHSGEELQLTTTITHVDGPTEIYKLTRKEAQE	no binding	binds	binds	binds	no binding	binds	binds	–
ERLIN2 (endogenous) (protein, UniProt O94905 1-339) MAQLGAVVAVASSFFCASLFSAVHKIEEGHIGVYYRGGALLTSTSGPGFHLMLPFITSYKSVQTTLQTDEVKNVPCGTSGGVMIYFDRIEVVNFLVPNAVYDIVKNYTADYDKALIFNKIHHELNQFCSVHTLQEVYIELFDQIDENLKLALQQDLTSMAPGLVIQAVRVTKPNIPEAIRRNYELMESEKTKLLIAAQKQKVVEKEAETERKKALIEAEKVAQVAEITYGQKVMEKETEKKISEIEDAAFLAREKAKADAECYTAMKIAEANKLKLTPEYLQLMKYKAIASNSKIYFGKDIPNMFMDSAGSVSKQFEGLADKLSFGLEDEPLETATKEN	–	–	–	binds	–	–	–	binds
FAF2 (endogenous) (protein, UniProt Q96CS3 1-445) MAAPEERDLTQEQTEKLLQFQDLTGIESMDQCRHTLEQHNWNIEAAVQDRLNEQEGVPSVFNPPPSRPLQVNTADHRIYSYVVSRPQPRGLLGWGYYLIMLPFRFTYYTILDIFRFALRFIRPDPRSRVTDPVGDIVSFMHSFEEKYGRAHPVFYQGTYSQALNDAKRELRFLLVYLHGDDHQDSDEFCRNTLCAPEVISLINTRMLFWACSTNKPEGYRVSQALRENTYPFLAMIMLKDRRMTVVGRLEGLIQPDDLINQLTFIMDANQTYLVSERLEREERNQTQVLRQQQDEAYLASLRADQEKERKKREERERKRRKEEEVQQQKLAEERRRQNLQEEKERKLECLPPEPSPDDPESVKIIFKLPNDSRVERRFHFSQSLTVIHDFLFSLKESPEKFQIEANFPRRVLPCIPSEEWPNPPTLQEAGLSHTEVLFVQDLTDE	–	no binding	–	–	–	–	–	binds
